Among all 48,000 compounds or so, about 450 (0.94%) were called active. Inconclusive results (about 19%) are left out. Calls come from the whole dose curve; as a rule, active = well fitted inhibition curve with a large enough effect; inconclusive = small, poorly fitted or top-dose-only effect; inactive = no such curve, though single readings can be large or run the other way. This is one part of the list.

A short description of this assay: Primary qHTS for Identification of Small Molecule Inhibitors of Huntingtin Promoter Activity. Note: nearly all actives have a fitted effect of over 50% in size. Particulars: HEK293 HTT promoter firefly luciferase reporter (activity 0% = vehicle and -100% = no light), 24 h; series mostly up to 57.5 µM; activity change, negative = inhibition: at the top concentration. In short, it runs like this:
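Firefly luciferase signal from promoter-reporter HEK293 cells was scaled between vehicle (0%) and zero RLU (-100%). Compounds were tested at final concentrations of up to 57.5 uM over 24 h at 37 degrees C. PTC124 at 50 uM final served as control inhibitor.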
Regarding `COc1cc2c(cc1OC)C(c1cc(OC)c(O)c(OC)c1)CC(=O)N2` (configuration not stated), the “activity change, negative = inhibition” value was inactive: 6.57%.
With `Cc1cc(C)cc(N2C(=O)CS(=O)(=O)C23C(=O)N(Cc2ccccc2)c2ccccc23)c1` (configuration not stated) the figure was inactive: -26.9%; with `CC(C)(O)c1ccccc1CC[C@@H](SCC1(CC(=O)O)CC1)c1cccc(/C=C/c2ccc3ccc(Cl)cc3n2)c1`, inactive: 10.6%.
With `Cc1cc(OCC(=O)Nc2ncn[nH]2)c(C)c(C)c1Br` the figure was inactive: 4.5%; with `COc1nnc(-c2ccc(N3CCCCC3)c(NC(=O)c3ccc(Cl)cc3)c2)c2ccccc12`, inactive: -22.9%; with `CCc1cc(=O)[nH]c(SCc2nc(-c3ccccc3C)no2)n1`, inactive: -4.32%.
With `CCOC(=O)C1CCN(c2ncnc3c2c(-c2ccccc2)cn3-c2ccc(C)c(Cl)c2)CC1` the figure was inactive: -14%; with `O=C1NC(=O)C(c2ccccc2)(c2ccccc2)N1`, inactive: -10.1%; with `COc1ccc(OC)c(NC(=O)c2nc(SCc3ccc(F)cc3)ncc2Cl)c1`, inactive: -0.177%.
As to `O=C(NCCc1csc(-c2ccc(F)cc2)n1)C(=O)Nc1ccc(Cl)cc1`, the “activity change, negative = inhibition” value was inactive: -5.13%.
With `CCC(=O)N1c2ccc(S(=O)(=O)NCCc3ccccc3)cc2CC1C` (configuration not stated) the figure was inactive: -29.4%; with `O=C(/C=C/c1cn(CC(O)CN2CCc3ccccc32)c2ccccc12)c1ccc(Br)cc1` (configuration not stated), inactive: -23.8%; with `COC(=O)c1ccccc1NC(=O)N(Cc1ccc(C)cc1)Cc1cccn1-c1nnc(N2CCCC2=O)s1`, inactive: -11.5%.
With `CCOC(=O)c1[nH]c(C)c(CCC(=O)NCc2ccc(OC(C)C)cc2)c1C` the figure was inactive: -35.6%; with `Cc1ccc(CNS(=O)(=O)c2c(C(=O)N3CCC(C)CC3)c(C)n(C)c2C)cc1`, inactive: -15%; with `COc1ccc(C)cc1NC(=O)C1CCN(S(=O)(=O)c2cccc3nonc23)CC1`, inactive: -8.54%.
As to `Cc1cc(Nc2cccc(O)c2)c2cccc(Br)c2n1`, the “activity change, negative = inhibition” value was inactive: 4.02%.
Turning to `Cc1sc2ncn(CC(=O)Nc3ccc(C(F)(F)F)cc3)c(=O)c2c1S(=O)(=O)N1CCN(C)CC1`, the “activity change, negative = inhibition” value was inactive: -15.8%.
With `Cc1cccc(NC(=O)CSc2nnc3c4ccccc4n(C)c3n2)c1` the figure was inactive: -7.23%; with `CCc1ccc(S(=O)(=O)c2cn(CC(=O)Nc3cccc(C)c3)c3ccc(Cl)cc3c2=O)cc1`, inactive: -17.1%; with `Cc1ccc(C)c(NC(=O)Nc2csc3c2CCCC3)c1`, inactive: -19.6%.
With `CCOc1ccc2nc(N3CCCC(C(=O)NCc4ccc(C)cc4)C3)sc2c1` (configuration not stated) the figure was inactive: 71.3%.
With `CC(C)NC(=O)C1CCN(C(=O)N2CC(C)Oc3ccccc32)CC1` (configuration not stated) the figure was inactive: -0.728%; with `COc1ccccc1[C@H](c1cccc2ccccc12)[C@@](C)(C#N)C(=O)N1CCC(c2cccc(C(F)(F)F)c2)CC1`, inactive: -4.39%.
With `CCS(=O)(=O)NCCc1csc2nc(-c3ccc(C)cc3)nn12`, the “activity change, negative = inhibition” value is inactive: -19.9%.
With `O=C(COCc1cc(-c2cccs2)on1)Nc1cccc(O)c1` the figure was inactive: -11.3%; with `COc1ccc(NC(=O)Cn2cc(C(=O)c3cccs3)c3ccccc32)cc1`, inactive: -18.8%; with `COC(=O)c1c(C)sc(-c2c(-c3ccc4c(c3)OCCO4)[nH]c3c2c(=O)[nH]c(=O)n3C)c1O`, inactive: -18.9%.
In the case of `O=C(O)CO.[NH2-].[NH2-].[Pt+2]`, the “activity change, negative = inhibition” value was inactive: 13%.
With `Cc1c(CNCCCc2ccccc2)c(C(=O)O)c(C)n1Cc1cccc(Cl)c1` the figure was inactive: -17.1%; with `COc1ccc(S(=O)(=O)c2cn(C)c3cc(N4CCOCC4)c(F)cc3c2=O)cc1`, inactive: -13.2%; with `Cc1ccc(OCc2cc(=O)n3cc(C)sc3n2)c(C)c1`, inactive: 4.14%.
Take `CCc1ccc(OCC(=O)Nc2ccc(Cl)c(-c3nc4ncccc4o3)c2)cc1`: the “activity change, negative = inhibition” value is inactive: 35.7%.
With `CCc1ccc(OCC(=O)Nc2ccc3oc(-c4ccc(OC)cc4)nc3c2)cc1` the figure was inactive: 39.8%; with `COC(=O)CC1Oc2ccc(Cl)cc2-n2cc(-c3ccc(F)cc3)nc21` (configuration not stated), inactive: 2.04%.
With `O=C(COc1ccccc1)Nc1c(Cl)ccc2nsnc12` the figure was inactive: -32.4%; with `CCCCCCCCCCCC(CC1OC(=O)C1CCCCCC)OC(=O)C(CC(C)C)NC=O` (configuration not stated), inactive: -6.6%.
In the case of `CCN1CCN(C(=O)c2c(C)nn(-c3ccc(F)cc3)c2-n2cccc2)CC1`, the “activity change, negative = inhibition” value is inactive: -15.1%.
With `CC(C)(C)NC(=O)CCSc1nc(-c2ccc3c(c2)OCO3)cc(C(F)(F)F)n1` the figure was inactive: 0.616%; with `CN(Cc1ccccc1)c1ccc(-c2nc(-c3cccnc3)no2)cc1[N+](=O)[O-]`, inactive: 0.186%.
With `CCN(Cc1ccccc1)S(=O)(=O)c1ccc2[nH]c3c(c2c1)CCCCC3` the figure was inactive: -32.9%; with `CCOC(=O)c1cccc(NC(=O)c2nn(-c3ccc(OC)cc3)c(=O)c3c2c2ccccc2n3C)c1`, inactive: -23.6%; with `Cc1cc(-c2nc3ncccc3o2)ccc1NC(=O)COc1cc(C)c(Cl)c(C)c1`, inactive: -15.3%.
With `CN(C)c1ccc(CNC(=O)c2cccn2-c2nnc(N3CCCCC3)s2)cc1` the figure was inactive: -27.1%; with `Cc1ccc(C)c(NC(=O)CSc2nc(-c3ccccc3Cl)nc3c2Cc2c(CO)cnc(C)c2O3)c1`, inactive: -18%; with `CCOC(=O)c1cnc2nc(NCc3ccc(OCC)cc3)[nH]n2c1=O`, inactive: -1.96%.
Regarding `O=C(NCc1ccc(F)cc1)C(=O)NCC(c1cccs1)S(=O)(=O)c1cccs1` (configuration not stated), the “activity change, negative = inhibition” value was inactive: -33.4%.

Source of the values: PubChem BioAssay AID1508623 (National Center for Advancing Translational Sciences (NCATS), 2021).
